Drawing on PubChem BioAssay AID1745853 (National Center for Advancing Translational Sciences (NCATS), 2022), this text covers activity change, negative = inhibition for 32 molecules.

Holding throughout (test): Primary Screen for Target Class Profiling of Small Molecule Inhibitors of Methyltransferases
Test [1] concerns the target Glycine N-methyltransferase (Homo sapiens) (UniProt Q14749). The settings on record: purified enzyme, MTase-Glo SAH luminescence; measured here: GNMT inhibition; at 40 µM; stronger effect = lower value. The method, boiled down:
(§1)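 Each enzyme was assayed with SAM and its substrate. SAH formation detected by MTase-Glo luminescence; single-point 40 uM screen[…].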

Test [2] deals with Guanidinoacetate N-methyltransferase (Homo sapiens) (UniProt Q14353). The settings on record: purified enzyme, MTase-Glo SAH luminescence; measured here: GAMT inhibition; at 40 µM; stronger effect = lower value. Summed up: as §1
Test [3] concerns the target Histamine N-methyltransferase (Homo sapiens) (UniProt P50135). The settings on record: purified enzyme, MTase-Glo SAH luminescence; measured here: HNMT inhibition; at 40 µM; stronger effect = lower value. Summed up:
as §1

Test [4] concerns the target Nicotinamide N-methyltransferase (Homo sapiens) (UniProt P40261). The settings on record: purified enzyme, MTase-Glo SAH luminescence; measured here: NNMT inhibition; at 40 µM; stronger effect = lower value. Summed up: as §1
The target in test [5] is Phenylethanolamine N-methyltransferase (Homo sapiens) (UniProt P11086). The note with it: purified enzyme, MTase-Glo SAH luminescence; measured here: PNMT inhibition; at 40 µM; stronger effect = lower value. The method, boiled down:
as §1

SMILES strings stand for the structures. The list shows a part of the results. Shown are side measurements of this screen, not its main read-out; they come without a call.
% is scaled to controls: 0 for no effect and ±100 for the full control effect.

For `C[C@@]12C[C@@H](c3ccoc3)OC(=O)C1CC[C@]1(C)[C@H]2[C@H]2C=C[C@]1(O)C(=O)O2` (some centres not stated), the activity change, negative = inhibition in test [1] was 4.07%; in test [2], 5.68%; in test [3], 5.59%; in test [4], -7.93%; in test [5] it was 6.41%.

With `CCCN1CCC[C@@H]2Cc3nc(N)ncc3C[C@H]21`, the activity change, negative = inhibition is -6.39% in test [1]; 6.05% in test [2]; 0.71% in test [3]; -6.92% in test [4]; 7.35% in test [5].

Consider `CCOC(=O)c1cccc(NC(=O)N2Cc3ccccc3-n3cccc3C2CC)c1` (configuration not stated), for which the activity change, negative = inhibition in test [1] turned out to be 0.794%; in test [2] it was 0.875%; in test [3], 2.4%; in test [4], 1.86%; in test [5] it was 3.02%.

With `O=C(N1CCOCC1)N1CCN(c2ccc(Cl)cc2)CC1`, the activity change, negative = inhibition is -6.62% in test [1]; -0.297% in test [2]; 6.09% in test [3]; -15.6% in test [4]; 1.18% in test [5].

In the case of `Cc1ccc(NC(=O)N2Cc3ccccc3-n3cccc3C2c2ccccc2)c(C)c1` (configuration not stated), the activity change, negative = inhibition in test [1] is -0.66%; in test [2], 0.645%; in test [3], -2.01%; in test [4], -3.31%; in test [5], -3%.

`O=C(Nc1ccccc1F)N1Cc2ccccc2-n2cccc2C1c1cc(F)cc(F)c1` (configuration not stated): the activity change, negative = inhibition in test [1] was 9.94%; in test [2] it was 2.37%; in test [3], 7.36%; in test [4], 11.7%; in test [5] it was 10.4%.

Turning to `COc1ccc(NC(=O)N2Cc3ccccc3-n3cccc3C2c2cc(F)cc(F)c2)cc1` (configuration not stated), the activity change, negative = inhibition in test [1] amounted to 14%; in test [2], 0.233%; in test [3] it was 12%; in test [4], 0.586%; in test [5], 9.27%.

As to `COc1ccc(C2c3cccn3-c3ccccc3CN2C(=O)Nc2cccc(C)c2C)cc1OC` (configuration not stated), the activity change, negative = inhibition in test [1] is 4.59%; in test [2], 0.259%; in test [3], -1.06%; in test [4], -2.76%; in test [5], 2.39%.

As to `Cc1ccccc1-n1c(Cn2cnc3c(N)ncnc32)nc2cccc(C)c2c1=O`, the activity change, negative = inhibition in test [1] was -6.6%; in test [2], -6.14%; in test [3], 0.783%; in test [4], -22.6%; in test [5] it was -2.52%.

Regarding `CN(N=O)c1ccc(O)c(O)c1`, the activity change, negative = inhibition in test [1] was -76%; in test [2], -24%; in test [3] it was -14.3%; in test [4], -18.6%; in test [5], -41%.

On to `CC(C)=CCC[C@]1(C)C=Cc2c(O)c3c(c(CC=C(C)C)c2O1)O[C@]12C(=C[C@@H]4CC1C(C)(C)O[C@@]2(C/C=C(/C)C(=O)O)C4=O)C3=O`, for which the results for the activity change, negative = inhibition in test [1] and in test [3] were -7.84% and -7.34%, respectively.

For the molecule `CC(=O)c1ccc(NC(=O)OC[C@H]2C[C@@H]3CCN2C[C@@H]3c2cc(C3CCCC3)nc(-c3ccncc3)n2)cc1`, the activity change, negative = inhibition in test [1] was -13.1%; in test [2], -2.54%; in test [3], -14.1%; in test [4], -45.8%; in test [5], 1.5%.

Turning to `CC(Cc1ccc(O)cc1)NCC(O)c1cc(O)cc(O)c1` (configuration not stated), the activity change, negative = inhibition was -5.09% in test [1]; 1.51% in test [2]; -13.6% in test [3]; -6.81% in test [4]; 3.59% in test [5].

As for `COc1ccc(C2c3cccn3-c3ccccc3CN2C(=O)NCc2ccc(C)cc2)cc1` (configuration not stated), the activity change, negative = inhibition was 2.63% in test [1]; 3.53% in test [2]; -4.81% in test [3]; -8.06% in test [4]; -4.28% in test [5].

For `CCOC(=O)CNC(=O)N1Cc2ccccc2-n2cccc2C1c1ccc(OC)c(OC)c1` (configuration not stated), the activity change, negative = inhibition in test [1] is 7.8%; in test [2] it was 0.069%; in test [3], 1.9%; in test [4], 3.09%; in test [5] it was 6.02%.

As for `C=C[C@H]1CN2CC[C@H]1C[C@@H]2[C@@H](O)c1ccnc2ccccc12`, the activity change, negative = inhibition in test [1] was -1.91%; in test [2], -1.4%; in test [3] it was 0.336%; in test [4], -13.8%; in test [5], -28.7%.

Turning to `Cn1cnc(CCN)c1`, the activity change, negative = inhibition in test [1] is 3.88%; in test [2], 14.2%; in test [3], -23%; in test [4], -0.852%; in test [5] it was 11%.

For the molecule `CC(=O)O[C@H]1CC[C@H]2[C@@H]3CC[C@H]4CC(=O)C=C(C)[C@]4(C)[C@H]3CC[C@]12C`, the activity change, negative = inhibition in test [1] was -22.1%; in test [2], -5.73%; in test [3] it was 0.778%; in test [4], -28.1%; in test [5], -2.34%.

As for `CCOc1ccc(NC(=O)N2Cc3ccccc3-n3cccc3C2c2ccc(F)cc2)cc1` (configuration not stated), the activity change, negative = inhibition in test [1] is -1.5%; in test [2], 5.14%; in test [3], 2.12%; in test [4], 0.091%; in test [5], 8.71%.

In the case of `CC(C)[C@H]1OC(=O)[C@H](Cc2ccccc2)N(C)C(=O)[C@@H](C(C)C)OC(=O)[C@H](Cc2ccccc2)N(C)C(=O)[C@@H](C(C)C)OC(=O)[C@H](Cc2ccccc2)N(C)C1=O`, the activity change, negative = inhibition in test [1] is -4.23%; in test [2] it was -7.91%; in test [3] it was 8.26%; in test [4], -22.4%; in test [5], -15.8%.

Turning to `C[C@]12CC[C@H](O)C[C@H]1CC[C@@H]1[C@@H]2[C@H](O)C[C@]2(C)[C@@H](c3ccc(=O)oc3)CC[C@]12O`, the activity change, negative = inhibition in test [1] was 1.27%; in test [2], 6.52%; in test [3], 5.04%; in test [4], -5.26%; in test [5] it was 5.53%.

As for `COC(=O)C1(C)CCC(=O)C2(C)c3c(O)cc(C(C)C)cc3C(O)C(OC(C)=O)C12` (configuration not stated), the activity change, negative = inhibition in test [1] was 4.93%; in test [2], 4.57%; in test [3], 10.6%; in test [4] it was -6.48%; in test [5], -0.978%.

Turning to `CCc1ccc(C2c3cccn3-c3ccccc3CN2C(=O)Nc2ccccc2C(=O)OC)cc1` (configuration not stated), the activity change, negative = inhibition stood at 14.1% in test [1]; 2.37% in test [2]; 7.81% in test [3]; 8.63% in test [4]; 9.92% in test [5].

Take `CCc1ccccc1NC(=O)N1Cc2ccccc2-n2cccc2C1c1cccs1` (configuration not stated): the activity change, negative = inhibition in test [1] is -0.126%; in test [2], 0%; in test [3], 4.89%; in test [4], 1.27%; in test [5], 7.37%.

Consider `CSc1ccc(-c2ccc(=O)n3c2[C@@H]2C[C@@H](CN(C(=O)Nc4cccc(F)c4)C2)C3)cc1`, for which the activity change, negative = inhibition is -8.65% in test [1]; -12.3% in test [2]; -6.57% in test [3]; -18.3% in test [4]; -18.9% in test [5].

Turning to `C=CC/C=C\C/C=C\CCCCCCCc1cc(O)cc(O)c1`, the activity change, negative = inhibition in test [1] was -3.9%; in test [2], 2.94%; in test [3], 5.28%; in test [4], -12.2%; in test [5], -8.41%.

As for `CCOc1ccc(C2c3cccn3-c3ccccc3CN2C(=O)Nc2cccc(C(F)(F)F)c2)cc1` (configuration not stated), the activity change, negative = inhibition in test [1] worked out at 0.804%; in test [2], 1.95%; in test [3], 10%; in test [4] it was 5.7%; in test [5] it was 8.07%.

As for `CCN1CCN(c2ccc(Cl)nn2)C(=O)C1`, the activity change, negative = inhibition in test [1] was -2.18%; in test [2], -2.01%; in test [3], -0.097%; in test [4] it was -5.8%; in test [5] it was 1.93%.

Regarding `CCc1ccc(C2c3cccn3-c3ccccc3CN2C(=O)NCc2cccc(OC)c2)cc1` (configuration not stated), the activity change, negative = inhibition in test [1] is 13%; in test [2], 0%; in test [3] it was 6.44%; in test [4], 1.73%; in test [5], 6.01%.

`COc1ccc(C2c3cccn3-c3ccccc3CN2C(=O)NCc2ccc(F)cc2)cc1OC` (configuration not stated): the activity change, negative = inhibition in test [1] was 6.29%; in test [2], -1%; in test [3], -1.34%; in test [4], -7.76%; in test [5], -0.91%.

On to `CCc1ccccc1NC(=O)N1Cc2ccccc2-n2cccc2C1c1ccc(OC)cc1` (configuration not stated), for which the activity change, negative = inhibition came to 6.66% in test [1]; 0% in test [2]; 0.553% in test [3]; 0.02% in test [4]; 3.37% in test [5].

Turning to `Cn1nc(C2CCCCC2)cc1[C@H]1CN2CC[C@H]1C[C@@H]2CNC(=O)NCc1ccccc1`, the activity change, negative = inhibition in test [1] was 0.318%; in test [2], -1.74%; in test [3], -5.96%; in test [4], -5.56%; in test [5] it was 1.66%.
